Binding signal data for 14 molecules are collected here from publication PMC12136788.

T1: UNK ZnF1-3 (human, UniProt Q9C0B0 31-174)
T1 sequence: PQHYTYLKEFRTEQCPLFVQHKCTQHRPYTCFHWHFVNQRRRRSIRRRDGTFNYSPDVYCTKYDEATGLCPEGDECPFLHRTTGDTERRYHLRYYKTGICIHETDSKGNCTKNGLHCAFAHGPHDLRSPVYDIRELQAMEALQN

B1: chr11:2966284:2966285:-_ENSG00000205531_ENST00000380542|hu_hu|FALSE|FALSE (ssRNA)
RNA: GGGAGUUCUACAGUCCGACGAUCAGGUGACCCGCAGCAGCUCUCACCUGGGCUGGUGUGUCACAACCCUGACCCACCCCUAAAAAAAAAAAAAAAUCAAGAAGCAACAUCCUAAGGAGAACAGGGCCCUACUCUACACAGCCCCAACAGAGGAUUGAGCAUCA
B2: 151805286_151807646_1166_CDS_ENSG00000178234_ENST00000430044|human|control|control (ssRNA)
RNA: GGGAGUUCUACAGUCCGACGAUCCAUGGCAAACAAACCUCCAGCCAUUGUUGGUGACUUUAUUGGUGCAGUGGCUCCCUCCGCUCGUCCUAGCUCAGAAAGGGGGACAAGAUCCCAUUUGAAGUGCAGUCCCCAGUUGAACCCCAACAGAGGAUUGAGCAUCA
B3: chr10:106022761:106022762:+_ENSG00000148834_ENST00000369713|hu_hu|motif|central (ssRNA)
RNA: GGGAGUUCUACAGUCCGACGAUCAAAUUCUUUACGAAAUUCUUCUUUUAGGCCAGCAUAGUCUUCUUUAUUUUGGCUUCGGAUAAAGCUUCCUACCAAGGAUGGCACCUUAGAAAACAACUCUAAGAUCAUCUUCUGGCAAGCCAACAGAGGAUUGAGCAUCA
B4: chr15:51794541:51794542:-_ENSMUSG00000022314_ENSMUST00000022927|mus_mus|motif|central (ssRNA)
RNA: GGGAGUUCUACAGUCCGACGAUCCAUGGAAGUCUUAGUUUUAAAACUGAUUUCCCCCCCAUAAAAGUGCCAACACUUAAGCGGGAACUUUUCAACAUAAUUUUGUCCUACAAAGUGAACAUGUUUUGAUAUUUAUAUAGUCACCAACAGAGGAUUGAGCAUCA
B5: chr4:46174136:46174137:+_ENSMUSG00000028330_ENSMUST00000030014|mus_hu|FALSE|FALSE (ssRNA)
RNA: GGGAGUUCUACAGUCCGACGAUCAUCUUCCCAGCUCCAACGGAACUGGAAGUUACUUAGAUGAUGAGAAAACCAAUUAAUAAACCUGUCUACACAGGUAGUGUUCAUUGUGUCCAAACGCAUGUAUAGCAUUUCAGUUGCCUGCAACAGAGGAUUGAGCAUCA
B6: chr5:37680062:37680063:+_ENSMUSG00000029121_ENSMUST00000031004|mus_hu|mus_mus_mus_hu_False|18_18 (ssRNA)
RNA: GGGAGUUCUACAGUCCGACGAUCUUUGGGUGUAGCUGGUACCUCGUACACAGGACCGUCAUACAUGCCCCUGGAAACCCCUUGCAAUCCAAAAACCUUAUUCCUGAUUUUGACGCGCUGGUAGAGAUGCUCCGGGAACGCCUUCAACAGAGGAUUGAGCAUCA
B7: 4099149_4099269_1105_3pUTR_ENSMUSG00000001467_ENSMUST00000001507|mouse|control|control (ssRNA)
RNA: GGGAGUUCUACAGUCCGACGAUCUGGCAAUAGCCAGGCAGCGUGGGUAAAACCUCCAUCCAGGUCUGCGUACAGCUGAGCCACCUUCUCGUUGAGUUGACUUCUAAUUUCCUUUCCAUGUAAACAAUGGCUAGCUGUCAAAAUCAACAGAGGAUUGAGCAUCA
B8: chr3:148802587:148802588:-_ENSG00000071794_ENST00000310053|hu_mus|hu_hu_hu_mus_False|48_58 (ssRNA)
RNA: GGGAGUUCUACAGUCCGACGAUCUCCAACAACUUGUCCUCUCAUAGUUCCAAAUAAAACCAAAUCUUGCUCUUCAUCACUAGUUAGAAAGUCAUCUGGAGGAAUAAUGUCUUGGAAUUCAAAAUGUGGCAAGAAAGUUGAGUACAACAGAGGAUUGAGCAUCA
B9: chr5:31825596:31825597:-_ENSMUSG00000053134_ENSMUST00000065388|mus_mus|motif|central (ssRNA)
RNA: GGGAGUUCUACAGUCCGACGAUCUAGGAAGUCUAGGCAGUUCCCACAUAAGAAGCAAGCUAAGAUCACUUUAAAAAGGUGCGGGCAAAACUCUAGGACAGACAAUACUCUCCCGCCCUGCCCCAGGAGUGGUAUACGCGGCUGCAACAGAGGAUUGAGCAUCA
B10: chr20:7962013:7962014:-_ENSG00000125827_ENST00000246024|hu_mus|FALSE|FALSE (ssRNA)
RNA: GGGAGUUCUACAGUCCGACGAUCGGGUUCAGAAAAACAAAGGAUGUGGCUGGAGAAACUCUUGAAGAAGUUAUCCUGUAACUAUAGGACCCAAAAAAGAUGUUGCUUGUACCUGUCCUAUGAAACUGCCACUGCCUUUUGAAUCAACAGAGGAUUGAGCAUCA
B11: 45008640_45009124_3592_CDS_ENSMUSG00000038518_ENSMUST00000173246|mouse|control|control (ssRNA)
RNA: GGGAGUUCUACAGUCCGACGAUCUACUUUGGACACAAAGGAUCCCGGGAAGCAGACGACAAACUGCCCACUCUGCUGUACAGUCCUGUGGACCUUGAUCCCCUUCUUGCACAGCACCUCUGGGGAGAUCAUUACAUUGCUCUCCAACAGAGGAUUGAGCAUCA
B12: chr17:32333828:32333829:-_ENSMUSG00000024002_ENSMUST00000121285|mus_hu|FALSE|FALSE (ssRNA)
RNA: GGGAGUUCUACAGUCCGACGAUCUACAGUACAGCCACGGUCACACACUACCCACAGCGCGGUGGCAGCCGCUGCUCAAUGAGGAGACGAUCACACCAUUUCGGAGAUAAGCAGUGCCAUUGUGUCUGGAGGAGAAGAGAGAAUCAACAGAGGAUUGAGCAUCA
B13: 25201842_25208054_780_CDS_ENSMUSG00000059669_ENSMUST00000075954|mouse|control|control (ssRNA)
RNA: GGGAGUUCUACAGUCCGACGAUCGAUGCCUUUGUCACGACCAUACACUUUCAUCUCUUCUGGAAAAAGCUUAAAAGCAUUUAUGUACGGAAUAUGAUCCUCUUCAACAAACCUCAAAAGGUCUGAAACUGUAAUUGUUUCCCUCAACAGAGGAUUGAGCAUCA
B14: chr11:4127340:4127341:+_ENSG00000167325_ENST00000300738|hu_hu|FALSE|FALSE (ssRNA)
RNA: GGGAGUUCUACAGUCCGACGAUCAGCAUAGUCAGGGUGCUUAGUAGUCAAGGUUGCAGCUGUUUCAGCAGCCAAAGUAUCUAGUUCCACUGUGGUGACCCCACUGUACAAGCCUUGGAUUACUUUCAUGGUGAUCUGAGCAGGCAACAGAGGAUUGAGCAUCA

Some of the results follow.

The test deals with T1, UNK ZnF1-3. In words: nsRBNS (natural sequence RNA bind-n-seq); RBNS binding buffer (assumed for nsRBNS): 25 mM Tris pH 7.5, 150 mM KCl, 3 mM MgCl2, 0.01% Triton X-100, 500 ug/ml BSA, 20 U/ml SUPERase-In, 4 C; UNK is unkempt and MSI1 is Musashi-1; names of the RNAs are library labels; protein concentration not given here; high values mean tight binding.
As to B1, the binding signal stood at 3.03 enrichment R.

Turning to B2, the binding signal amounted to 1.04 enrichment R.

Regarding B3, the binding signal amounted to 0.857 enrichment R.

Regarding B4, the binding signal was 0.636 enrichment R.

B5 gave a binding signal of 0.61 enrichment R.

In turn, B6 gave a binding signal of 0.828 enrichment R.

As to B7, the binding signal worked out at 0.668 enrichment R.

B8 yielded a binding signal of 1.31 enrichment R.

For the molecule B9, the binding signal turned out to be 1.17 enrichment R.

For the molecule B10, the binding signal was 1.86 enrichment R.

B11 registered a binding signal of 0.963 enrichment R.

Take B12: the binding signal came out at 1.37 enrichment R.

The molecule B13 registered a binding signal of 1.04 enrichment R.

B14: the binding signal was 0.979 enrichment R.
